Results on ten variants are retold here after the supplement of paper PMC12217912.

Some of the results follow. Sequences were assembled here from the parent chain. Values near 0.05 are background.

B1: TEV protease; numbered along this chain (parent)
chain: MGESLFKGPRDYNPISSSICHLTNESDGHTTSLYGIGFGPFIITNKHLFRRNNGTLVVQSLHGVFKVKDTTTLQQHLVDGRDMIIIRMPKDFPPFPQKLKFREPQREERICLVTTNFQTKSMSSMVSDTSCTFPSGDGIFWKHWIQTKDGQCGSPLVSTRDGFIVGIHSASNFTNTNNYFTSVPKNFMELLTNQEAQQWVSGWRLNADSVLWGGHKVFMVKPEEPFQPVKEATQL

The assay covers variants of B1. The experiment in a line: raw area under fraction-flipped curve 0-4 h after induction (AUC4h, not background-subtracted), DNA-recorder readout of cleavage of the substrate (dimensionless); higher = more cleavage of the substrate by the protease variant. The conditions noted are these: temperature: 34 °C; time window: 0-4 h after rhamnose induction.
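Note: Bxb1 expression induced with 0.2% (w/v) L-rhamnose at OD600 near 0.5, cultures sampled hourly, flipped fraction per protease–substrate barcode pair counted by paired-end Illumina sequencing.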

Regarding MGESLFKGPRDYNPISSSICHLTNESDGHTTSLYGIGFGPFIITNKHLFRRNNGTLVVQSLHGVFKVKDTTTLQQHLVDGRDMIIIRMPKDFPPFPQKLKFREPQREERICLVTTNFQTKSMSSMVSDTSCTFPSVDGIFWKHWIQTKDGQCGSPLVSTRDGFIVGIHSASNFTNTNNYFTSVPKNFMELLTNQEAQQWVSGWRLNADSVLWGGHKVFMVKPEEPFQPVKEATQL [G136V], the “area with substrate ENLDFQS” value is 0.0713, the “area with substrate ENLEFQS” value is 0.0575, the “area with substrate ENLFFQS” value stood at 0.0771 and the “area with substrate ENLHFQS” value is 0.0644. For the same variant, the “area with substrate ENLIFQS” value was found to be 0.0728, the “area with substrate ENLKFQS” value came to 0.0784, the “area with substrate ENLLFQS” value stood at 0.0659 and the “area with substrate ENLMFQS” value came to 0.0597. Moreover, the “area with substrate ENLNFQS” value came to 0.0513, the “area with substrate ENLPFQS” value is 0.0913, the “area with substrate ENLQFQS” value is 0.0574 and the “area with substrate ENLSFQS” value was 0.0485. Moreover, the “area with substrate ENLWFQS” value amounted to 0.0666.
As for MGESLFKGPRDYNPISSSICHLTNESDGHTTSLYGIGFGPFIITNKHLFRRNNGTLVVQSLHGVFKVKDTTTLQQHLVDGRDMIIIRMPKDFPPFPQKLKFREPQREERICLVTTNFQTKSMSSMVSDTSCTFPSKDGIFWKHWIQTKDGQCGSPLVSTRDGFIVGIHSASNFTNTNNYFTSVPKNFMELLTNQEAQQWVSGWRLNADSVLWGGHKVFMVKPEEPFQPVKEATQL [G136K], the “area with substrate ENLDFQS” value amounted to 0.0568, the “area with substrate ENLFFQS” value was found to be 0.0733, the “area with substrate ENLHFQS” value worked out at 0.0717 and the “area with substrate ENLNFQS” value is 0.0648. Moreover, the “area with substrate ENLSFQS” value came out at 0.0286 and the “area with substrate ENLVFQS” value came out at 0.0761.
With MGESLFKGPRDYNPISSSICHLTNESDGHTTSLYGIGFGPFIITNKHLFRRNNGTLVVQSLHGVFKVKDTTTLQQHLVDGRDMIIIRMPKDFPPFPQKLKFREPQREERICLVTTNFQTKSMSSMVSDTRCTFPSGDGIFWKHWIQTKDGQCGSPLVSTRDGFIVGIHSASNFTNTNNYFTSVPKNFMELLTNQEAQQWVSGWRLNADSVLWGGHKVFMVKPEEPFQPVKEATQL [S130R], the “area with substrate ENLDFQS” value was found to be 0.0567, the “area with substrate ENLGFQS” value turned out to be 0.0573, the “area with substrate ENLHFQS” value was found to be 0.0667 and the “area with substrate ENLIFQS” value was determined as 0.0529. Besides, the “area with substrate ENLKFQS” value worked out at 0.0939, the “area with substrate ENLLFQS” value amounted to 0.0663, the “area with substrate ENLNFQS” value came out at 0.0566 and the “area with substrate ENLSFQS” value was 0.0732. Besides, the “area with substrate ENLTFQS” value was found to be 0.0413.
As to MGESLFKGPRDYNPISSSICHLTNESDGHTTSLYGIGFGPFIITNKHLFRRNNGTLVVQSLHGVFKVKDTTTLQQHLVDGRDMIIIRMPKDFPPFPQKLKFREPQREERICLVTTNFQTCSMSSMVSDTSCTFPSGDGIFWKHWIQTKDGQCGSPLVSTRDGFIVGIHSASNFTNTNNYFTSVPKNFMELLTNQEAQQWVSGWRLNADSVLWGGHKVFMVKPEEPFQPVKEATQL [K120C], the “area with substrate ENLDFQS” value was found to be 0.0778, the “area with substrate ENLEFQS” value was 0.0596, the “area with substrate ENLFFQS” value was 0.0856 and the “area with substrate ENLGFQS” value was 0.0687. Moreover, the “area with substrate ENLHFQS” value came to 0.0585, the “area with substrate ENLKFQS” value stood at 0.0809, the “area with substrate ENLLFQS” value was 0.0725 and the “area with substrate ENLMFQS” value is 0.0788. For the same variant, the “area with substrate ENLNFQS” value stood at 0.0664, the “area with substrate ENLPFQS” value came out at 0.0703, the “area with substrate ENLTFQS” value was found to be 0.0866 and the “area with substrate ENLVFQS” value is 0.102.
MGESLFKGPRDYNPISSSICHLTNESDGHTTSLYGIGFGPFIITNKHLFRRNNGTLVVQSLHGVFKVKDTTTLQQHLVDGRDMIIIRMPKDFPPFPQKLKFREPQREERICLVTTNFQTASMSSMVSDTSCTFPSGDGIFWKHWIQTKDGQCGSPLVSTRDGFIVGIHSASNFTNTNNYFTSVPKNFMELLTNQEAQQWVSGWRLNADSVLWGGHKVFMVKPEEPFQPVKEATQL [K120A]: the “area with substrate ENLDFQS” value came to 0.0577, the “area with substrate ENLFFQS” value amounted to 0.0838, the “area with substrate ENLHFQS” value was 0.0716 and the “area with substrate ENLLFQS” value is 0.0714. For the same variant, the “area with substrate ENLMFQS” value came out at 0.0669, the “area with substrate ENLNFQS” value came out at 0.0691, the “area with substrate ENLPFQS” value was determined as 0.0649 and the “area with substrate ENLRFQS” value was 0.051. The “area with substrate ENLSFQS” value is 0.0208.
Turning to MGESLFKGPRDYNPISSSICHLTNESDGHTTSLYGIGFGPFIITNKHLFRRNNGTLVVQSLHGVFKVKDTTTLQQHLVDGRDMIIIRMPKDFPPFPQKLKFREPQREERICLVTTNFQTVSMSSMVSDTSCTFPSGDGIFWKHWIQTKDGQCGSPLVSTRDGFIVGIHSASNFTNTNNYFTSVPKNFMELLTNQEAQQWVSGWRLNADSVLWGGHKVFMVKPEEPFQPVKEATQL [K120V], the “area with substrate ENLDFQS” value is 0.0444, the “area with substrate ENLEFQS” value amounted to 0.0685, the “area with substrate ENLFFQS” value turned out to be 0.0959 and the “area with substrate ENLHFQS” value came to 0.0631. The “area with substrate ENLKFQS” value turned out to be 0.0713, the “area with substrate ENLLFQS” value was determined as 0.0563, the “area with substrate ENLNFQS” value came out at 0.0625 and the “area with substrate ENLPFQS” value is 0.0688. The “area with substrate ENLQFQS” value amounted to 0.0659, the “area with substrate ENLRFQS” value worked out at 0.0703, the “area with substrate ENLSFQS” value was determined as 0.0735 and the “area with substrate ENLVFQS” value turned out to be 0.0873.
As for MGESLFKGPRDYNPISSSICHLTNESDGHTTSLYGIGFGPFIITNKHLFRRNNGTLVVQSLHGVFKVKDTTTLQQHLVDGRDMIIIRMPKDFPPFPQKLKFREPQREERICLVTTNFQTKSMSSMVSDTSCTFPSGDGIFWKHWEQTKDGQCGSPLVSTRDGFIVGIHSASNFTNTNNYFTSVPKNFMELLTNQEAQQWVSGWRLNADSVLWGGHKVFMVKPEEPFQPVKEATQL [I145E], the “area with substrate ENLDFQS” value was found to be 0.0549, the “area with substrate ENLEFQS” value was 0.0676, the “area with substrate ENLLFQS” value stood at 0.0613 and the “area with substrate ENLNFQS” value is 0.058. In addition, the “area with substrate ENLRFQS” value is 0.0606.
For the variant MGESLFKGPRDYNPISSSICHLTNESDGHTTSLYGIGFGPFIITNKHLFRRNNGTLVVQSLHGVFKVKDTTTLQQHLVDGRDMIIIRMPKDFPPFPQKLKFREPQPEERICLVTTNFQTKSMSSMVSDTSCTFPSGDGIFWKHWIQTKDGQCGSPLVSTRDGFIVGIHSASNFTNTNNYFTSVPKNFMELLTNQEAQQWVSGWRLNADSVLWGGHKVFMVKPEEPFQPVKEATQL [R106P], the “area with substrate ENLDFQS” value was 0.0701, the “area with substrate ENLHFQS” value is 0.0695, the “area with substrate ENLIFQS” value came out at 0.0713 and the “area with substrate ENLKFQS” value worked out at 0.0756. Moreover, the “area with substrate ENLNFQS” value came to 0.0762 and the “area with substrate ENLRFQS” value is 0.0761.
For MGESLFKGPRDYNPISSSICHLTNESDGHTTSLYGIGFGPFIITNKHLFRRNNGTLVVQSLHGVFKVKDTTTLQQHLVDGRDMIIIRMPKDFPPFPQKLKFRERQREERICLVTTNFQTKSMSSMVSDTSCTFPSGDGIFWKHWIQTKDGQCGSPLVSTRDGFIVGIHSASNFTNTNNYFTSVPKNFMELLTNQEAQQWVSGWRLNADSVLWGGHKVFMVKPEEPFQPVKEATQL [P104R], the “area with substrate ENLDFQS” value worked out at 0.0453, the “area with substrate ENLFFQS” value came out at 0.0652, the “area with substrate ENLIFQS” value was 0.0545 and the “area with substrate ENLKFQS” value was found to be 0.0497. Further, the “area with substrate ENLLFQS” value stood at 0.0425, the “area with substrate ENLMFQS” value was 0.0292, the “area with substrate ENLNFQS” value was determined as 0.0517 and the “area with substrate ENLPFQS” value is 0.0567. Moreover, the “area with substrate ENLRFQS” value worked out at 0.0503 and the “area with substrate ENLSFQS” value amounted to 0.0629.
In the case of MGESLFKGPRDYNPISSSICHLTNESDGHTTSLYGIGFGPFIITNKHLFRRNNGTLVVQSLHGVFKVKDTTTLQQHLVDGRDMIIIRMPKDFPPFPQKLKFREPQREERICLVTTNFQFKSMSSMVSDTSCTFPSGDGIFWKHWIQTKDGQCGSPLVSTRDGFIVGIHSASNFTNTNNYFTSVPKNFMELLTNQEAQQWVSGWRLNADSVLWGGHKVFMVKPEEPFQPVKEATQL [T119F], the “area with substrate ENLDFQS” value came out at 0.068, the “area with substrate ENLFFQS” value amounted to 0.106, the “area with substrate ENLMFQS” value stood at 0.0641 and the “area with substrate ENLQFQS” value was determined as 0.0866. Further, the “area with substrate ENLVFQS” value came to 0.0791.
